Read counts are not given, so values of variants with three or more changes are uncertain.
B1: CPEB3 Ribozyme (parent)
chain: UAACAGGGGGCCACAGCAGAAGCGUUCACGUCGCAGCCCCUGUCAGAUUCUGGUGAAUCUGCGAAUUCUGCUGUAUAUCUC

Variants of: B1
Experiment: self-cleavage, relative activity (ratio to wild type); higher = more cleavage; in vitro, sequencing
How it was run: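 Barcoded CPEB3 ribozyme mutants, produced by rounds of error-prone PCR, self-cleaved while being transcribed with T7 RNA polymerase for 5 hours at 37°C and during a subsequent 15 min DNase I step before EDTA was added. Sequencing of template-switched cDNA on Illumina gave cleaved and total reads, and DNA sequencing assigned barcodes to variants. Each variant's relative activity is its cleaved/total read fraction divided by the unmutated ribozyme's fraction, averaged across three batches. A variant needed a minimum of 5 reads.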

Row | Variant | self-cleavage
1 | UAACGGGGGGCCACAGCAGAAGCGUUCACGUCGCAGCCCCUGCCAGCUUCUGGCGAAUCUGCGAAUCCUGCUGUAUAUCUC [A5G U43C A47C U54C U67C] | 0.31
2 | UAACGGGGGGCCACAGCAGAAGCGUUCACGUCGCAGCCCCUGCCAGGUUCUGGUGAAUCUGCGAAUUCUGCUGUAUAUCUC [A5G U43C A47G] | 0.13
3 | UAACGGGGGGCCACAGCAGAAGCGUUCACGUCGCAGCCCCUGCCAGAUUCUGGUGAAUCUGCGGAUUCUGCUGUAUAUCUC [A5G U43C A64G] | 0.18
4 | UAACGGGGGGCCACAGCAGAAGCGUUCACGUCGCAGCCCCUGCCAGAUUCUGGUGAAUCUGCGGAUUCUGCCGUAUAUCUC [A5G U43C A64G U72C] | 0.25
5 | UAACGGGGGGCCACAGCAGAAGCGUUCACGUCGCAGCCCCUGCCAGAUUCUGGUGAAUCUGCGAAUUCUGCUGUAUAUUUC [A5G U43C C79U] | 0
6 | UAACGGGGGGCCACAGCAGAAGCGUUCACGUCGCAGCCCCUGCCAGAAUCUGGUGAAUCUGCGAAUUCUGCUGUGUAUCUC [A5G U43C U48A A75G] | 0.07
7 | UAACGGGGGGCCACAGCAGAAGCGUUCACGUCGCAGCCCCUGCCAGAUUCAGGUGAAUCUGCGUAUUCUGCUGUAUAUCUC [A5G U43C U51A A64U] | 0.19
8 | UAACGGGGGGCCACAGCAGAAGCGUUCACGUCGCAGCCCCUGCCAGAUUCCGGUGAAUCUGCGAAUCCUGCUGUAUAUCUC [A5G U43C U51C U67C] | 0.46
9 | UAACGGGGGGCCACAGCAGAAGCGUUCACGUCGCAGCCCCUGCCAGAUUCGGGUGAAUCUGCGAAUUCCGCUGUAUAUCUC [A5G U43C U51G U69C] | 0.08
10 | UAACGGGGGGCCACAGCAGAAGCGUUCACGUCGCAGCCCCUGCCAGAUUCUGGCGAAUCUGCGUAUUCUGCUGUAUAUCUC [A5G U43C U54C A64U] | 0.2
11 | UAACGGGGGGCCACAGCAGAAGCGUUCACGUCGCAGCCCCUGCCAGAUUCUGGCGAAUCUGCGAACUCUGCUGUAUAUCUC [A5G U43C U54C U66C] | 0.12
12 | UAACGGGGGGCCACAGCAGAAGCGUUCACGUCGCAGCCCCUGCCAGAUUCUGGCGAAUCUGCGAAUCCUGCUGUAUAUCUC [A5G U43C U54C U67C] | 0.24
13 | UAACGGGGGGCCACAGCAGAAGCGUUCACGUCGCAGCCCCUGCCAGAUUCUGGUGAAACUGCGAAUUCUGCUGUAUAUCUC [A5G U43C U58A] | 0.32
14 | UAACGGGGGGCCACAGCAGAAGCGUUCACGUCGCAGCCCCUGCCAGAUUCUGGUGAACCUGCGGAUUCUGCUGUAUAUCUC [A5G U43C U58C A64G] | 0.21
15 | UAACGGGGGGCCACAGCAGAAGCGUUCACGUCGCAGCCCCUGCCAGAUUCUGGUGAAUCUGCGAAUUCCGCUGUAUACCUC [A5G U43C U69C U78C] | 0.22
16 | UAACGGGGGGCCACAGCAGAAGCGUUCACGUCGCAGCCCCUGGCAGAUUCUGGUGAAUCUGCGAAUCCUGCCGUAUAUCUC [A5G U43G U67C U72C] | 0.35
17 | UAACGGGGGGCCACAGCAGAAGCGUUCACGUCGCAGCCCCUGGCAGAUUCUGGUGAAUCUGCGAAUUCUGCUGUAUAUCCC [A5G U43G U80C] | 0.7

Row | Variant | self-cleavage
18 | UAACGGGGGGCCACAGCAGAAGCGUUCACGUCGCAGCCCCUGUCAGAAUCUGGUGAAUCUGCGUAUUCUGCUGUAUAUCUC [A5G U48A A64U] | 0.3
19 | UAACGGGGGGCCACAGCAGAAGCGUUCACGUCGCAGCCCCUGUCAGACUCUGGUGUACGUGCGAAUUCUGCUGUAUAUCUC [A5G U48C A56U U58C C59G] | 0.14
20 | UAACGGGGGGCCACAGCAGAAGCGUUCACGUCGCAGCCCCUGUCAGACUCUGGUGAGUCUGCGAAUUCUGCAGUAUAUCUC [A5G U48C A57G U72A] | 0.15
21 | UAACGGGGGGCCACAGCAGAAGCGUUCACGUCGCAGCCCCUGUCAGACUCAGGUGAACCUGCGAAUUCCGCUGUAUAUCUC [A5G U48C U51A U58C U69C] | 0.28
22 | UAACGGGGGGCCACAGCAGAAGCGUUCACGUCGCAGCCCCUGUCAGACUCUGGUGAACCUGCGAGUUCCGCUGUGUAUCUC [A5G U48C U58C A65G U69C A75G] | 0.27
23 | UAACGGGGGGCCACAGCAGAAGCGUUCACGUCGCAGCCCCUGUCAGACUCUGGUGAACCUGCGAAUCCUGCCGUAUAUCUC [A5G U48C U58C U67C U72C] | 0.25
24 | UAACGGGGGGCCACAGCAGAAGCGUUCACGUCGCAGCCCCUGUCAGACUCUGGUGAAGCUGCGAAUUCUGCUGUAUAUCUC [A5G U48C U58G] | 0.05
25 | UAACGGGGGGCCACAGCAGAAGCGUUCACGUCGCAGCCCCUGUCAGACUCUGGUGAAUCAGCGAAUUCUGCUGUAUAUCUC [A5G U48C U60A] | 0.42
26 | UAACGGGGGGCCACAGCAGAAGCGUUCACGUCGCAGCCCCUGUCAGACUCUGGUGAAUCUGCGAAUUCAGCUGUAUAUCUC [A5G U48C U69A] | 0.2
27 | UAACGGGGGGCCACAGCAGAAGCGUUCACGUCGCAGCCCCUGUCAGAUACUGGUGAAUCUGCGUAUUCUGCUGUAUAUCUC [A5G U49A A64U] | 0.1
28 | UAACGGGGGGCCACAGCAGAAGCGUUCACGUCGCAGCCCCUGUCAGAUACCGGUGAACCUGCGAAUUCUGCUGUAUAUCUC [A5G U49A U51C U58C] | 0.14
29 | UAACGGGGGGCCACAGCAGAAGCGUUCACGUCGCAGCCCCUGUCAGAUACUGGCGAAUCUGCGAAUUCUGCUGUAUAUCUC [A5G U49A U54C] | 0.13
30 | UAACGGGGGGCCACAGCAGAAGCGUUCACGUCGCAGCCCCUGUCAGAUACUGGUGAACCUGCGAAUUCUGCUGUAUGUCUC [A5G U49A U58C A77G] | 0.16
31 | UAACGGGGGGCCACAGCAGAAGCGUUCACGUCGCAGCCCCUGUCAGAUCCUGGUGAAUCUGCGGAUUCUGCUGUAUAUCUC [A5G U49C A64G] | 0.11
32 | UAACGGGGGGCCACAGCAGAAGCGUUCACGUCGCAGCCCCUGUCAGAUCCUCGUGAAUCUGCGAAUCCAGCUGUAUAUCUC [A5G U49C G52C U67C U69A] | 0.19
33 | UAACGGGGGGCCACAGCAGAAGCGUUCACGUCGCAGCCCCUGUCAGAUCCUGGAGAAUCUGCGAAUUCUGCUGUAUAUCUC [A5G U49C U54A] | 0.23
34 | UAACGGGGGGCCACAGCAGAAGCGUUCACGUCGCAGCCCCUGUCAGAUCCUGGUGAAUCCGCGAAUUCUGCUGUAUAUCUC [A5G U49C U60C] | 0
